# Experimental data published in the supplement of paper PMC8728848.
# Some of the results follow.
# Experiments:
# Test in all cases: glycan array binding signal (z-score within array); higher = stronger binding
# Conditions in all cases: glycan notation: IUPAC condensed, linker removed
# Gal(b1-3)Gal(b1-4)GlcNAc = molecular target: Gal(b1-3)Gal(b1-4)GlcNAc
# Outline: (§1)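 From the Consortium for Functional Glycomics database, 3228 arrays were curated, keeping only those whose protein sequence was available. Binding is given as a within-array Z-score averaged across arrays sharing a protein sequence and across linkers. Negative Z-scores can be read as non-binding.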
# [1] = molecular target: Gal(b1-3)Gal(b1-4)GlcNAc(b1-2)Man(a1-3)[Gal(b1-3)Gal(b1-4)GlcNAc(b1-2)Man(a1-6)]Man(b1-4)GlcNAc(b1-4)GlcNAc
# Outline: as §1
# Gal(b1-3)GalNAc = molecular target: Gal(b1-3)GalNAc
# Outline: as §1
# [2] = molecular target: Gal(b1-3)GalNAc(a1-3)[Fuc(a1-2)]Gal(b1-4)Glc
# Outline: as §1
# [3] = molecular target: Gal(b1-3)GalNAc(a1-3)[Fuc(a1-2)]Gal(b1-4)GlcNAc
# Outline: as §1
# [4] = molecular target: Gal(b1-3)GalNAc(b1-3)Gal(a1-4)Gal(b1-4)Glc
# Outline: as §1
# [5] = molecular target: Gal(b1-3)GalNAc(b1-4)Gal(b1-4)Glc
# Outline: as §1
# [6] = molecular target: Gal(b1-3)GalNAc(b1-4)[Neu5Ac(a2-3)]Gal(b1-4)Glc
# Outline: as §1
# Gal(b1-3)GlcNAc = molecular target: Gal(b1-3)GlcNAc
# Outline: as §1
# [7] = molecular target: Gal(b1-3)GlcNAc(b1-2)Man(a1-3)[Gal(b1-3)GlcNAc(b1-2)Man(a1-6)]Man(b1-4)GlcNAc(b1-4)GlcNAc
# Outline: as §1
# [8] = molecular target: Gal(b1-3)GlcNAc(b1-2)Man(a1-3)[Gal(b1-3)GlcNAc(b1-2)Man(a1-6)]Man(b1-4)GlcNAc(b1-4)[Fuc(a1-6)]GlcNAc
# Outline: as §1
# [9] = molecular target: Gal(b1-3)GlcNAc(b1-3)Gal(b1-3)GlcNAc
# Outline: as §1
# [10] = molecular target: Gal(b1-3)GlcNAc(b1-3)Gal(b1-4)Glc
# Outline: as §1
# [11] = molecular target: Gal(b1-3)GlcNAc(b1-3)Gal(b1-4)GlcNAc
# Outline: as §1
# [12] = molecular target: Gal(b1-3)[Fuc(a1-4)]GlcNAc
# Outline: as §1
# [13] = molecular target: Gal(b1-3)[Fuc(a1-4)]GlcNAc(b1-2)Man(a1-3)[Gal(b1-3)[Fuc(a1-4)]GlcNAc(b1-2)Man(a1-6)]Man(b1-4)GlcNAc(b1-4)GlcNAc
# Outline: as §1
# [14] = molecular target: Gal(b1-3)[Fuc(a1-4)]GlcNAc(b1-2)Man(a1-3)[Gal(b1-3)[Fuc(a1-4)]GlcNAc(b1-2)Man(a1-6)]Man(b1-4)GlcNAc(b1-4)[Fuc(a1-6)]GlcNAc
# Outline: as §1
# [15] = molecular target: Gal(b1-3)[Fuc(a1-4)]GlcNAc(b1-3)Gal(b1-3)[Fuc(a1-4)]GlcNAc
# Outline: as §1
# [16] = molecular target: Gal(b1-3)[Fuc(a1-4)]GlcNAc(b1-3)Gal(b1-4)GlcNAc
# Outline: as §1
# [17] = molecular target: Gal(b1-3)[Fuc(a1-4)]GlcNAc(b1-3)Gal(b1-4)[Fuc(a1-3)]GlcNAc
# Outline: as §1
# [18] = molecular target: Gal(b1-3)[GlcNAc(b1-6)]GalNAc
# Outline: as §1
# [19] = molecular target: Gal(b1-3)[Neu5Ac(a2-6)]GalNAc
# Outline: as §1
# [20] = molecular target: Gal(b1-3)[Neu5Ac(a2-6)]GlcNAc(b1-6)Gal(b1-4)Glc
# Outline: as §1
# [21] = molecular target: Gal(b1-3)[Neu5Ac(b2-6)]GalNAc
# Outline: as §1
# [22] = molecular target: Gal(b1-4)GalNAc(a1-3)[Fuc(a1-2)]Gal(b1-4)GlcNAc
# Outline: as §1
# [23] = molecular target: Gal(b1-4)GalNAc(b1-3)[Fuc(a1-2)]Gal(b1-4)GlcNAc
# Outline: as §1
# Gal(b1-4)Glc = molecular target: Gal(b1-4)Glc
# Outline: as §1
# Gal(b1-4)Glc6S = molecular target: Gal(b1-4)Glc6S
# Outline: as §1
# Gal(b1-4)GlcNAc = molecular target: Gal(b1-4)GlcNAc
# Outline: as §1
# [24] = molecular target: Gal(b1-4)GlcNAc(a1-6)Gal(b1-4)GlcNAc
# Outline: as §1
# [25] = molecular target: Gal(b1-4)GlcNAc(b1-2)Man(a1-3)Man(b1-4)GlcNAc(b1-4)GlcNAc
# Outline: as §1
# [26] = molecular target: Gal(b1-4)GlcNAc(b1-2)Man(a1-3)[Gal(b1-4)GlcNAc(b1-2)Man(a1-6)]Man(b1-4)GlcNAc(b1-4)GlcNAc
# Outline: as §1
# [27] = molecular target: Gal(b1-4)GlcNAc(b1-2)Man(a1-3)[Gal(b1-4)GlcNAc(b1-2)Man(a1-6)]Man(b1-4)GlcNAc(b1-4)[Fuc(a1-6)]GlcNAc
# Outline: as §1
# [28] = molecular target: Gal(b1-4)GlcNAc(b1-2)Man(a1-3)[Man(a1-6)]Man(b1-4)GlcNAc(b1-4)GlcNAc
# Outline: as §1
# [29] = molecular target: Gal(b1-4)GlcNAc(b1-2)Man(a1-6)Man(b1-4)GlcNAc(b1-4)GlcNAc
# Outline: as §1
# [30] = molecular target: Gal(b1-4)GlcNAc(b1-2)Man(a1-6)[Man(a1-3)]Man(b1-4)GlcNAc(b1-4)GlcNAc
# Outline: as §1
# [31] = molecular target: Gal(b1-4)GlcNAc(b1-2)[Gal(b1-4)GlcNAc(b1-4)]Man(a1-3)[Gal(b1-4)GlcNAc(b1-2)Man(a1-6)]Man(b1-4)GlcNAc(b1-4)GlcNAc
# Outline: as §1
# [32] = molecular target: Gal(b1-4)GlcNAc(b1-3)Gal(b1-3)GlcNAc
# Outline: as §1
# [33] = molecular target: Gal(b1-4)GlcNAc(b1-3)Gal(b1-4)Glc
# Outline: as §1
# [34] = molecular target: Gal(b1-4)GlcNAc(b1-3)Gal(b1-4)GlcNAc
# Outline: as §1
# [35] = molecular target: Gal(b1-4)GlcNAc(b1-3)Gal(b1-4)GlcNAc(b1-3)Gal(b1-4)GlcNAc
# Outline: as §1
# [36] = molecular target: Gal(b1-4)GlcNAc(b1-3)Gal(b1-4)[Fuc(a1-3)]GlcNAc(b1-3)Gal(b1-4)[Fuc(a1-3)]GlcNAc
# Outline: as §1
# [37] = molecular target: Gal(b1-4)GlcNAc(b1-3)GalNAc
# Outline: as §1
# [38] = molecular target: Gal(b1-4)GlcNAc(b1-3)[Gal(b1-4)GlcNAc(b1-6)]Gal(b1-4)GlcNAc
# Outline: as §1
# [39] = molecular target: Gal(b1-4)GlcNAc(b1-3)[GlcNAc(b1-6)]Gal(b1-4)GlcNAc
# Outline: as §1
binder,measurement,setting,value
"GIINTLQKYYCRVRGGRCAVLSCLPKEEQIGKCSTRGRKCCRRKK [Beta-Defensin 3 (Homo sapiens), P81534]",glycan array binding signal (z-score),Gal(b1-3)Gal(b1-4)GlcNAc,-0.281
same,glycan array binding signal (z-score),[1],-0.659
same,glycan array binding signal (z-score),Gal(b1-3)GalNAc,0.052
same,glycan array binding signal (z-score),[2],-0.292
same,glycan array binding signal (z-score),[3],-0.234
same,glycan array binding signal (z-score),[4],-0.464
same,glycan array binding signal (z-score),[5],-0.315
same,glycan array binding signal (z-score),[6],-0.33
same,glycan array binding signal (z-score),Gal(b1-3)GlcNAc,-0.245
same,glycan array binding signal (z-score),[7],-0.507
same,glycan array binding signal (z-score),[8],-0.62
same,glycan array binding signal (z-score),[9],-0.29
same,glycan array binding signal (z-score),[10],-0.348
same,glycan array binding signal (z-score),[11],-0.455
same,glycan array binding signal (z-score),[12],-0.042
same,glycan array binding signal (z-score),[13],-0.319
same,glycan array binding signal (z-score),[14],-0.661
same,glycan array binding signal (z-score),[15],-0.457
same,glycan array binding signal (z-score),[16],-0.493
same,glycan array binding signal (z-score),[17],-0.287
same,glycan array binding signal (z-score),[18],-0.46
same,glycan array binding signal (z-score),[19],0.272
same,glycan array binding signal (z-score),[20],-0.543
same,glycan array binding signal (z-score),[21],0.323
same,glycan array binding signal (z-score),[22],-0.395
same,glycan array binding signal (z-score),[23],-0.359
same,glycan array binding signal (z-score),Gal(b1-4)Glc,0.122
same,glycan array binding signal (z-score),Gal(b1-4)Glc6S,0.789
same,glycan array binding signal (z-score),Gal(b1-4)GlcNAc,-0.279
same,glycan array binding signal (z-score),[24],-0.57
same,glycan array binding signal (z-score),[25],-0.408
same,glycan array binding signal (z-score),[26],-0.62
same,glycan array binding signal (z-score),[27],-0.692
same,glycan array binding signal (z-score),[28],-0.423
same,glycan array binding signal (z-score),[29],-0.517
same,glycan array binding signal (z-score),[30],-0.346
same,glycan array binding signal (z-score),[31],-0.572
same,glycan array binding signal (z-score),[32],-0.467
same,glycan array binding signal (z-score),[33],-0.43
same,glycan array binding signal (z-score),[34],-0.53
same,glycan array binding signal (z-score),[35],-0.59
same,glycan array binding signal (z-score),[36],-0.477
same,glycan array binding signal (z-score),[37],-0.215
same,glycan array binding signal (z-score),[38],-0.621
same,glycan array binding signal (z-score),[39],-0.661
